Toxic doses and inconclusive results are not listed. Some entries of the source have several records that differ or are many. They are shown here; other results are not. The source may hold further records. Values that stand side by side are repeated measurements (runs, samples, wells, individuals or studies). Marks such as (2×) give the number of equal values in this list. Numbered stars: 1 amine (or outer) side, 2 acyl side, 3 side chain; on linkers, the order of the positions; unused ones are H or OH. Bridge positions count the residues as written; N and C are the ends. Square brackets hold non-standard residues; d marks the D form. Peptide text beside a SMILES is read from it. I, II: the chains in the order shown. Actinocin(1to9) = Cc1c2oc3c(C)ccc(C(=O)[*:2])c3nc-2c(C(=O)[*:1])c(N)c1=O; NMeV = CN[CH](C(=O)O)C(C)C; Sar = CNCC(=O)O
Tested on: L1210 leukemia ip in BDF1 mice, survival T/C
Test: NCI In Vivo Anticancer Drug Screen. Data for tumor model L1210 Leukemia (intraperitoneal) in B6D2F1 (BDF1) mice
Conditions: endpoint: mean survival time, higher = longer survival
[1] = dose: 100.0 mg/kg/injection, schedule: Q01DX001 (ip), vehicle: saline

CN(O)C(N)=O
T/C (dose: 175.0 mg/kg/injection, schedule: Q01DX009 (ip), vehicle: saline): 118 % of control (2×) and 166 % of control

c1ccc(-c2nn3c(-c4ccccc4)nnc3o2)cc1
T/C (dose: 100.0 mg/kg/injection, schedule: Q01DX009 (ip), vehicle: saline with Tween-80): 95 % of control and 194 % of control

CCC(C)C1NC(=O)C(NC(=O)c2c3nc4c(C(=O)NC5C(=O)NC(C(C)C)C(=O)N6CCCC6C(=O)N(C)CC(=O)N(C)C(C(C)C)C(=O)OC5C)ccc(C)c4oc-3c(C)c(=O)c2N)C(C)OC(=O)C(C(C)C)N(C)C(=O)CN(C)C(=O)C2CCCN2C1=O (centres undefined) (I: TIP[Sar][NMeV] / II: TVP[Sar][NMeV]; ester I:1-I:C, II:1-II:C; linker I:N-II:N via Actinocin(1to9); configuration not given here)
T/C (dose: 50.0 micrograms/kg/injection, schedule: Q01DX009 (ip), vehicle: saline): 120 % of control and 174 % of control

CSc1ncc(Br)c(Sc2nc(N)nc3nc[nH]c23)n1
T/C (dose: 2.0 mg/kg/injection, schedule: Q01DX Z (ip), vehicle: other): 119 % of control and 152 % of control

O=c1[nH][nH]c(=O)n1-c1ccccc1
T/C (dose: 400.0 mg/kg/injection, schedule: Q04DX002 (ip), vehicle: saline with Tween-80): 95 % of control and 195 % of control

COc1cc(C=Nc2cccc(F)c2)ccc1N(CCCl)CCCl
T/C [1]: 124 % of control and 162 % of control

OC1C2C=CC(C2)C1O (centres undefined)
T/C [1]: 98 % of control and 174 % of control

OCCN1CCN(CC/C=C2\c3ccccc3Sc3ccc(Cl)cc32)CC1
T/C (dose: 50.0 mg/kg/injection, schedule: Q04DX003 (ip), vehicle: saline): 108 % of control and 150 % of control

CN(C)N=Nc1cn[nH]c1C(N)=O
T/C (dose: 400.0 mg/kg/injection, schedule: Q04DX003 (ip), vehicle: Klucel (hydroxypropylcellulose) (HPC)): 101 % of control and 168 % of control

From PubChem BioAssay AID248 (DTP/NCI, 2004)
